According to article PMC4336329 (PLoS ONE, 2015):
The campaign covered roughly 310,000 compounds. About 14,000 (4.5%) showed an effect of 50% or more. The effect is printed as a negative number. This is one part of the list.

Each molecule was assayed against human ether-à-go-go-related gene (hERG) potassium channel (human, UniProt Q12809) (assay: primary screen, population patch clamp on CHO cells stably expressing hERG).
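Further: peak tail current of the secondary pulse compared with the same well before compound.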

human ether-à-go-go-related gene (hERG) potassium channel, sequence (Q12809 whole entry, looked up): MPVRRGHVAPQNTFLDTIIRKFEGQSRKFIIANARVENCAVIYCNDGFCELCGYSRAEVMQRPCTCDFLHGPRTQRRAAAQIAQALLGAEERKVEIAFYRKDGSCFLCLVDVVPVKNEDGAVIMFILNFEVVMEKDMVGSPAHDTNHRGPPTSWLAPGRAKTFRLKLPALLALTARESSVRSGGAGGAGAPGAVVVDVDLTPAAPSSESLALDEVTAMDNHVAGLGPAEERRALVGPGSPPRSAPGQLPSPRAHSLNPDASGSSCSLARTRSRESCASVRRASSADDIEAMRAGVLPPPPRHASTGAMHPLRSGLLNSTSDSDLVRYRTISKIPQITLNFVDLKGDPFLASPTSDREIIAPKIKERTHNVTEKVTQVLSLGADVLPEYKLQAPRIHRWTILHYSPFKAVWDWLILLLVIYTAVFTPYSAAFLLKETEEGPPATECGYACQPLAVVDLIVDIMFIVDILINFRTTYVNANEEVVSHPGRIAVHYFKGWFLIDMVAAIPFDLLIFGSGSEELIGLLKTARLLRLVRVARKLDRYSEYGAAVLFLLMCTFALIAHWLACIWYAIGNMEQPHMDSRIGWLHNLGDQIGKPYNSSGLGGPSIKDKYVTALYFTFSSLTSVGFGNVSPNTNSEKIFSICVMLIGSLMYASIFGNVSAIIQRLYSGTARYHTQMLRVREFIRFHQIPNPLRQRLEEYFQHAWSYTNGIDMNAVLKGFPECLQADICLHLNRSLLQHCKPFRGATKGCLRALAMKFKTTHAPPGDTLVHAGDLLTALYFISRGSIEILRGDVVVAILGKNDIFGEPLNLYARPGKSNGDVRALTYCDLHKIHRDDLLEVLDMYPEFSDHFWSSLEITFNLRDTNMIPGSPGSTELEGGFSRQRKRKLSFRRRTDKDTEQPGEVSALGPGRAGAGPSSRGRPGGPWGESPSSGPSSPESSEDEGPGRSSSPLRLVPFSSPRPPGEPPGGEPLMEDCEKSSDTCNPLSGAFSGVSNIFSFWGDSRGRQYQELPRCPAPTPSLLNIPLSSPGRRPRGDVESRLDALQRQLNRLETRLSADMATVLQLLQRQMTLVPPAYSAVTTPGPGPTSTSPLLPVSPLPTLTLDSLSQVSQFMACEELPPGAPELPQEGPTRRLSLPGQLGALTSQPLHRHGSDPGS

Row | SMILES | hERG current change (%, negative = inhibition) at 10uM [%]
1 | CCOc1ccc(NS(=O)(=O)N(C)C)cc1 | 3.39
2 | CCCC(=O)NC(=S)Nc1cccc(NC(=O)c2ccccc2Cl)c1 | -3.15
3 | O=C(/C=C/c1ccccc1)Oc1ccccc1C(=S)N1CCOCC1 | -5.03
4 | CC(C)S(=O)(=O)c1ccc(C(=O)Nc2ccc(F)cc2F)cn1 | -8.17
5 | Cc1ccc(NC(=O)CSCC(=O)NCCc2ccccn2)c(C)c1 | 14.8
6 | Cc1ccc(S(=O)(=O)N(CC(=O)NCCSc2ccccn2)c2ccccc2F)cc1 | -45.5
7 | COc1ccc(OC)c(Nc2nc(N)c([N+](=O)[O-])c(N3CCOCC3)n2)c1 | 2.27
8 | CC(C)Oc1ccc(C2CC(=O)NC3=C2C(=O)CCC3)cc1 (stereo not drawn) | 13.8
9 | CSc1cccc(NC(=O)C2CCN(S(=O)(=O)c3ccc4c(c3)NC(=O)CO4)CC2)c1 | 12.3
10 | N/C(=N\OC(=O)CN1C(=O)c2ccccc2C1=O)c1ccc(Cl)cc1 | -11.9
11 | O=C(NCc1cccs1)c1ccc(CS(=O)(=O)c2ccc(Cl)cc2)o1 | -24
12 | CCC(C)(C)NC(=O)CN(C(=O)CCC(=O)Nc1ccccn1)c1ccc(F)c(Cl)c1 | -1.31
13 | Cc1nnc(NC(=O)CCN2C(=O)/C(=C\c3ccccc3)SC2=S)s1 | 8.61
14 | CC(=O)NS(=O)(=O)c1ccc(N2C(=O)CC(Sc3nccc(C)n3)C2=O)cc1 (stereo not drawn) | 19
15 | Cc1ccc(-c2nnn(CC(=O)N(Cc3ccco3)C(C(=O)NC(C)(C)C)c3cccs3)n2)o1 (stereo not drawn) | -19.2
16 | Clc1ccc(CN=C(Nc2ccccc2)NC2CCCCC2)cc1 | -39.7
17 | Cc1nn(Cc2n[nH]c(=S)n2Cc2ccccc2)c(C)c1Cl | 14
18 | O=C(NCc1ccc(/C=N\NC(=O)C(=O)Nc2ccccc2Br)o1)C(=O)Nc1ccccc1 | 21.9
19 | Cc1cccc(N2C(=S)NC3c4cc(Cl)ccc4OC2(C)C3C(=O)N(C)C)c1 (stereo not drawn) | -2.47
20 | O=C1N=c2ccccc2=C1c1sc(=S)n(NC(=O)c2ccccc2)c1O | 11.2
21 | O=C(O)c1n[nH]c2c1CCCC2 | 23.4
22 | CCCCCCNc1c(C(=O)OCC)c(=O)[nH]c2ccccc12 | -12.6
23 | Nc1nc(SCC(=O)NCc2ccccc2)n[nH]1 | 14.4

Row | SMILES | hERG current change (%, negative = inhibition) at 10uM [%]
24 | CCC(C)NC(=O)c1cccc(OCc2c(C)noc2C)c1 (stereo not drawn) | 10
25 | Cc1occc1C(=O)/C(C#N)=C/c1ccc(O)c(Br)c1 | 6.16
26 | CCOC(=O)c1cc(S(=O)(=O)NC2CCCCC2)cn1C | 6.88
27 | Cc1ccc(-c2ccc(CCC(=O)O)n2CC(=O)O)cc1 | 10.6
28 | O=C(CCc1ccccc1)NC(NC(=S)Nc1cccc(Cl)c1)C(Cl)(Cl)Cl (stereo not drawn) | 14.6
29 | COc1ccccc1N1CCN(CC(=O)Nc2cc(F)ccc2C)CC1 | -36
30 | COc1ccc(C(=O)Cn2c(C(=O)/C=C/c3ccccc3)nc3ccccc32)cc1 | -16.4
31 | COc1ccc(S(=O)(=O)NCCSC(C)(C)C)cc1 | 0.49
32 | Cc1c(C(=O)N(C)c2cccc(Cl)c2)cnn1-c1ccccc1 | -9
33 | O=C(Nc1ccc(C2CC2(Cl)Cl)cc1)c1cccc([N+](=O)[O-])c1 (stereo not drawn) | 8.11
34 | COc1ccc2c3c(c(=O)oc2c1OCC(N)=O)CCCC3 | -5.39
35 | CCOC(=O)C(C)Oc1cccc2c(=O)n(CC(=O)N3CCN(C(=O)OCC)CC3)ccc12 (stereo not drawn) | -0.563
36 | COc1cccc(CN(C)C(=O)CSCC(=O)Nc2ccc(C)cc2)c1OC | -12.9
37 | Cc1nn(Cc2ccc(F)cc2)c(Cl)c1/C=N/NC(=O)c1ccccc1 | -16.9
38 | COc1cccc(NC(=O)N2C3CCCC2CC(NC(C)=O)C3)c1 (stereo not drawn) | 11.6
39 | COc1ccc(NC(=O)CN(C)C(=O)CCC2CCCC2)cc1 | 5.49
40 | CN1CCc2c(c3c(n2C)CCN(C)C3c2ccc(F)cc2)C1c1ccc(F)cc1.Cl (stereo not drawn) | -10.3
41 | CCOC(=O)N/N=C/c1cn(CCCOc2ccc(C)cc2)c2ccccc12 | 9.47
42 | Cc1nc2ccccc2cc1O | 4.22
43 | COc1ccc(C(=O)N2CCN(CCNC(=O)C(=O)Nc3ccc(Br)cc3)CC2)cc1 | -80
44 | CCc1nnc(NC(=O)CSc2ncc(-c3ccccc3)n2CC)s1 | -17.9
45 | CN=c1scc(-c2ccccc2Br)n1/N=C/c1ccc[nH]1 | 6.95
46 | CN(C)c1nc(NC(C)(C)C)nc(NC(C)(C)C)n1 | 17

Row | SMILES | hERG current change (%, negative = inhibition) at 10uM [%]
47 | O=C(COC(=O)c1ccc2ccccc2n1)c1ccccc1 | 11.7
48 | Cc1ccc([N+](=O)[O-])c(C(=O)N/N=C/c2cccs2)c1 | 2.86
49 | Cc1cnc(C(=O)Nc2ccc(C)c(S(=O)(=O)N(C)C)c2)cn1 | -9.47
50 | COc1ccc(N(CC(=O)NCc2cccnc2)S(=O)(=O)c2ccccc2)c(OC)c1 | -8.52
51 | O=C(Nc1ccc(Cl)cc1C(=O)NCc1cccnc1)c1ccc(Cl)cc1Cl | -10.2
52 | CCNC(=S)N1CCn2c(nc3ccccc32)C1 | 3.37
53 | CCCCn1c(N)c(N(C)C(=O)c2cc3c(s2)CCCCC3)c(=O)[nH]c1=O | 11
54 | Cc1ccc(S(=O)(=O)Nc2cc(NC(=O)CN3CCOCC3)ccc2Cl)cc1.Cl | -7.58
55 | CC(=O)Nc1ccc(/C=N/N2C(=O)NC(C)(c3ccc(OC(F)F)cc3)C2=O)cc1 (stereo not drawn) | -10.5
56 | O=C(NC(=S)N1CCN(c2ccccn2)CC1)c1ccccc1 | 11.2
57 | NS(=O)(=O)c1ccc(NC(=O)CCCCC(=O)Nc2ccc(S(N)(=O)=O)cc2)cc1 | 4.12
58 | Cc1ccc(S(=O)(=O)N(C)CC(=O)N(CC(C)C)C2CCS(=O)(=O)C2)cc1 (stereo not drawn) | -2.85
59 | CCc1ccc(NC(=O)c2sccc2-n2cccc2)cc1 | -7.29
60 | COc1cccc(C(=O)Nc2cc(-c3cn4cccnc4n3)ccc2C)c1 | -12
61 | CCOc1ccc(-c2nc(-c3ccccc3)no2)cc1OCC | -12.3
62 | CCOC(=O)c1cnn(-c2ccccc2)c1N | 9.6
63 | COc1ccc(CN2C(=O)CCC2(C)C(=O)NC2CCCCC2)c(OC)c1 (stereo not drawn) | 3.3
64 | CC(=O)Cn1c(CN2CC(C)CC(C)C2)nc2c1c(=O)n(C)c(=O)n2C (stereo not drawn) | 2.98
65 | O=C(NCCc1ccc(F)cc1)C(=O)NCC1CCCN1S(=O)(=O)c1ccccc1 (stereo not drawn) | -61.7
66 | COc1ccc(CCNC(=O)c2cccnc2Cl)cc1OC | 9.91
67 | Cc1ccc(N2CCN(/N=C/C=C/c3ccccc3)CC2)cc1 | 10.7
68 | COc1ccc2nc(NC(=O)c3sc4nc(C)cc(C)c4c3N)sc2c1 | -8.69
69 | Nc1c(Br)c(=O)[nH]c(=O)n1-c1ccccc1 | 9.37

Row | SMILES | hERG current change (%, negative = inhibition) at 10uM [%]
70 | CCOC(=O)c1nc2cc3n(c(C)c-2c1C)C(C)C(CC)=C3C.Cl (stereo not drawn) | -66.7
71 | CCOC(=O)C1=C(C)N(c2ccc(C)cc2)C(=O)/C1=C\c1ccc(O)c(OC)c1 | -0.0882
72 | OCC[C@H]1C[C@H](O)[C@@H](O)[C@@]2(CCCO2)O1 | 20.1
73 | O=C(N/N=C(\CC(=O)c1cccs1)C(F)(F)F)c1cccnc1 | 16.4
74 | COc1ccccc1/C=C/C=N/NC(=O)c1ccc2nc[nH]c2c1 | 13.6
75 | O=C(CCSc1nnc(-c2ccc(O)cc2)o1)N1CCOCC1 | 17.9
76 | CCSC(=Nc1ccccc1)C1=C(O)COC1=O | 13.9
77 | O=C1CCC(=O)N1CCOP1(=O)COc2ccccc2OC1 | 20.6
78 | Cc1cc(-c2n[nH]c(=S)n2/N=C/C(Br)=C/c2ccccc2)n[nH]1 | 9
79 | O=C(O)CCSc1nnc(COc2ccc(Cl)cc2)n1-c1ccccc1 | 11.6
80 | Cc1ccc(CSc2nnc(-c3cccc(S(=O)(=O)N4CCOCC4)c3)n2C2CCCC2)cc1 | -17.7
81 | O=[N+]([O-])c1ccccc1Nc1ccccc1 | 3.08
82 | Cc1ccc(NC(=O)COC(=O)c2c[nH]c3ccccc23)cc1C | 14.5
83 | O=C(CNC(=O)c1sc2ccccc2c1Cl)NCc1ccc(F)cc1 | 18.3
84 | COc1ccc(C2=NS(=O)(=O)N(C)C(C(=O)N3CCN(C)CC3)=C2)cc1 | -1.87
85 | COc1ccc(-c2nnc(C3CCN(S(=O)(=O)c4ccccc4)CC3)o2)cc1 | -47.4
86 | CN(C)/C=C/C(=O)c1cnc(-c2ccccn2)s1 | 16.6
87 | Cc1ccc(NNC(=O)C(O)(c2cccc(C(F)(F)F)c2)c2cccc(C(F)(F)F)c2)cc1 | -7.55
88 | CN(C)N=O | 24.9
89 | CC(=O)Nc1ccc(S(=O)(=O)NCc2csc(-c3cccnc3)n2)cc1 | 0.532
90 | Cc1cc(C(=O)CSc2nc3ccccc3o2)c(C)n1CC1CCCO1 (stereo not drawn) | -4.77
